Test results taken from PubChem BioAssay AID686979 (National Center for Advancing Translational Sciences (NCATS), 2013).
Screen size: about 420,000 compounds; about 50,000 (12%) were called active. Inconclusive means that the source gave no clear call. Such entries were picked first, then a sample of the others. The call rests on the fitted dose curve; in most records, active means well fitted inhibition curve with a large enough effect; inconclusive means small, poorly fitted or top-dose-only effect; inactive means flat fitted curve, though single readings scatter. Potencies of inconclusive entries are left out as doubtful fits.

Assay: qHTS for Inhibitors of human tyrosyl-DNA phosphodiesterase 1 (TDP1): qHTS in cells in presence of CPT; further: nearly all actives have a fitted effect of over 55% in size
Conditions: chicken DT40 Tdp1-/-;hTDP1 cells + 20 nM CPT, ATP luminescence, 48 h; activity change, negative = growth inhibition: at 46.2 µM (top of the series) unless noted
Method in brief: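 Chicken DT40 Tdp1-/- cells complemented with human TDP1, 400 cells/well, exposed to compounds plus 20 nM camptothecin for at least 48 h at 37 C; viability read as ATP content by CellTiter-Glo luminescence.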
On the % scale 0 is the no-effect control and ±100 the full control effect; potency means the concentration at half of the fitted maximal effect; tags describe the fitted curve by direction and shape.

Row | Compound | activity change, negative = growth inhibition | Potency
1 | Cc1ccc(NCc2ccc([N+](=O)[O-])s2)cc1 | inactive: -11.5% | –
2 | CCOC(=O)c1cc(-c2ccc(C)cc2)n(CC(=O)Nc2cc(C)ccc2C)c1C | – | active: 20.6 µM
3 | COc1ccc(N2CC(C(=O)N3CCN(c4ccccc4OC)CC3)CC2=O)cc1 (centres undefined) | inactive: -19.3% | –
4 | COc1ccc(NC(=O)C2CCN(S(=O)(=O)c3ccc4c(c3)CC(C)N4C(C)=O)CC2)cc1OC (centres undefined) | – | inconclusive [inhibitor, single point]
5 | CCc1ccc(C(=O)Nc2cc(C)on2)o1 | inactive: -11.6% | –
6 | COc1ccc(CNC(=O)C2CCN(c3nnc(-n4cccc4CNc4ccc(C)cc4)s3)CC2)c(OC)c1 | – | active: 16.4 µM
7 | Nc1c(CO)nnn1-c1ccccc1 | inactive: 19.6% | –
8 | Cc1cc2c(cc1C)CSC(c1ccc3ccccc3c1O)SC2 | inactive: -16.9% | –
9 | CCN(CC)S(=O)(=O)c1ccc(N2CCOCC2)c(NC(=O)C(C)Oc2ccc(F)cc2)c1 (centres undefined) | – | inconclusive [inhibitor, single point]
10 | CC(C)Oc1cc(F)ccc1-c1cc(C(=O)NCc2ccccc2)[nH]n1 | inactive: -1.13% | –
11 | CCOc1ccc(S(=O)(=O)N2CC(=O)Nc3ccccc32)cc1 | – | inconclusive [inhibitor, single point]
12 | CC(=O)N1CCc2c(sc(NC(=O)C3CCCN3S(=O)(=O)c3cccs3)c2C(N)=O)C1 (centres undefined) | – | active: 20.6 µM
13 | Cc1ccccc1-n1c(=O)c2c3c(sc2n2cnnc12)CCCC3 | – | active: 14.6 µM
14 | Cc1no[n+]([O-])c1COc1ccc(/C=C2\NC(=S)NC2=O)cc1 | inactive: -15.3% | –
15 | COc1ccc(N=Nc2c(N)nn(C)c2N)cc1 | inactive: 1.58% | –
16 | Cc1ccc(NC(=O)COC(=O)Cn2nc(C)c([N+](=O)[O-])c2C)c([N+](=O)[O-])c1 | inactive: -6.51% | –
17 | C=CCSc1nnc(-c2sc(-c3ccccc3)nc2C)n1C | – | inconclusive [inhibitor, partial curve]
18 | CC1C(C#N)=C(SCC(N)=O)NC2=C1C(=O)CC(C)(C)C2 (centres undefined) | – | inconclusive [inhibitor, single point]
19 | O=C(NCc1ccco1)c1cc([N+](=O)[O-])ccc1N1CCOCC1 | inactive: -15% | –
20 | Cc1cccc(CSC2=NCCN2S(=O)(=O)c2ccc(F)cc2)c1 | – | active: 16.4 µM
21 | CCN(C(=O)COC(=O)CCC1CCCC1)c1c(N)n(Cc2ccccc2)c(=O)[nH]c1=O | inactive: -23.4% | –
22 | COc1ccc(C(=O)c2oc3ccccc3c2NC(C)=O)cc1 | – | inconclusive [inhibitor, partial curve, poor fit]
23 | COc1ccccc1/C=N/NC(=O)c1cccc(NC(=O)c2ccccc2C)c1 | inactive: -3.83% | –
24 | COC(=O)c1ccc(COC(=O)CCC(=O)c2cccs2)cc1 | inactive: 19.2% | –
25 | CN(C)c1ccc(CC(=O)c2nc3ccccc3s2)cc1 | – | active: 16.4 µM

Row | Compound | activity change, negative = growth inhibition | Potency
26 | COc1ccc(C(=O)Nc2cc(OC)cc(OC)c2)cc1 | – | inconclusive [inhibitor, single point]
27 | Cc1nn(Cc2ccccc2)c(C)c1C(=O)NCC(c1cccs1)N1CCOCC1 (centres undefined) | – | inconclusive [inhibitor, single point]
28 | Cc1nc(-c2cccc(S(=O)(=O)N3CCC(C)CC3)c2)cs1 | – | inconclusive [inhibitor, single point]
29 | Cc1ccc(S(=O)(=O)c2nc(-c3cccc(C)c3)oc2N2CCCCC2)cc1 | – | inconclusive [inhibitor, single point]
30 | O=S(=O)(c1ccc(F)cc1)N1CCC(n2c(C(F)(F)F)nc3cccnc32)CC1 | – | active: 11.6 µM
31 | O=C(NCc1ccccc1)c1cc(C2CCCN(C(=O)C3CCCCC3)C2)on1 (centres undefined) | – | active: 23.1 µM
32 | COc1ccc(N2CCN(C(=O)CN(C)S(=O)(=O)c3cccs3)CC2)cc1 | – | inconclusive [inhibitor, single point]
33 | O=C(NCCNC(=O)Oc1cccc2ccccc12)Oc1cccc2ccccc12 | – | inconclusive [inhibitor, single point]
34 | COc1ccc(C2(C(=O)NC3CCCCC3)CCOCC2)cc1OC | inactive: -3.3% | –
35 | O=C(Nc1csc([N+](=O)[O-])c1)Nc1c(Cl)cccc1Cl | – | inconclusive [inhibitor, single point]
36 | COc1ccc(NC(=O)CSc2c3c(nc4ccccc24)CCC3)c(OC)c1 | – | inconclusive [inhibitor, single point]
37 | CCOCCCNC(=O)CN1C(=O)/C(=C/c2ccccc2)Sc2ccccc21 | – | inconclusive [inhibitor, single point]
38 | Oc1c(C(c2ccccc2)N2CCCCC2)ccc2ccccc12 (centres undefined) | – | active: 18.4 µM
39 | Cc1ccc2[nH]c3ccccc3c(=O)c2c1 | – | active: 11.6 µM
40 | CCOC(=O)c1ccccc1NC(=O)c1sc2ccccc2c1Cl | inactive: -21.8% | –
41 | COc1ccc(-c2cn3nc(N4CCCC(C(=O)NCc5ccccc5C)C4)sc3n2)cc1 (centres undefined) | – | active: 13 µM
42 | Cc1cccn2c(CNC3CCCc4ccccc43)c(C(=O)N3CCOCC3)nc12 (centres undefined) | – | inconclusive [inhibitor, single point]
43 | C1CCC(n2nnnc2CN2CCCC2)CC1 | inconclusive: -24.3% [inhibitor] | –
44 | COc1ccc(CN=C2NN=C(c3cccc(OC)c3)CS2)cc1 | inactive: 17.4% | –
45 | O=C(C[C@H]1C(=O)N(c2ccc(F)c(F)c2)C[C@@H]1Cc1ccccc1)Nc1ccccc1 | – | active: 11.2 µM
46 | CC(NC(=O)c1cccc(S(=O)(=O)N2CCN(Cc3ccccc3)CC2)c1)c1ccc(Cl)cc1 (centres undefined) | – | inconclusive [inhibitor, single point]
47 | O=C(c1ccccc1)N1CCOC12CCN(c1ncc(C(F)(F)F)cc1Cl)CC2 | – | inconclusive [inhibitor, single point]
48 | Cc1cc(C)nc(NC2=NCCN2C(=S)Nc2c(C)cccc2C)n1 | inactive: -11.7% | –
49 | CCOc1ccc(/C=C/C(=O)c2ccccc2)cc1 | – | inconclusive [inhibitor, single point]
50 | COc1ccccc1CCNC(=O)C(=O)NCC1OCCN1C(=O)c1ccc(Cl)cc1 (centres undefined) | – | inconclusive [inhibitor, single point]

Row | Compound | activity change, negative = growth inhibition | Potency
51 | CC1CCCCC12NC(=O)N(CC(=O)Nc1sc3c(c1C(N)=O)CCC3)C2=O (centres undefined) | – | inconclusive [inhibitor, partial curve, poor fit]
52 | CCOc1ncccc1C(=O)OCC(=O)Nc1nnc(-c2ccccc2)o1 | – | inconclusive [inhibitor, single point]
53 | O=C(CN(CCc1ccccc1)S(=O)(=O)c1ccccc1)NCc1ccc(Cl)cc1 | – | inconclusive [inhibitor, single point]
54 | Cc1ccc(C(=O)NCCc2nnc3n2CCN(Cc2ccnc4ccccc24)CC3)c(C)c1 | – | inconclusive [inhibitor, single point]
55 | Cc1ccc([N+](=O)[O-])c(C(=O)N/N=C/c2cccs2)c1 | – | inconclusive [inhibitor, single point]
56 | N#CCCN(Cc1ccccc1)C(=O)Nc1ccc(F)cc1 | inactive: 3.01% | –
57 | CCN1CCN(C(=O)C2CCN(c3nnc(-n4c(C)ccc4C)s3)CC2)CC1 | – | inconclusive [inhibitor, single point]
58 | Cc1oc2ccc(OCC(N)=O)cc2c1C(=O)OC(C)C | inconclusive: -34.2% [inhibitor] | –
59 | CCC(C)CN1C(=O)CSCC1(C)C(=O)NCc1ccccc1 (centres undefined) | – | inconclusive [inhibitor, partial curve]
60 | CCOC(=O)c1oc2ccc(S(=O)(=O)Nc3ccc4c(c3)n(C)c(=O)n4C)cc2c1C | – | inconclusive [inhibitor, single point]
61 | O=C(Nc1ccccc1Cl)C1CCN(c2nc3ccccc3[nH]2)CC1 | inactive: -9.79% | –
62 | COc1cccc(NC(=O)CSCn2nnc3c(=O)[nH]c(Cc4ccc(F)cc4)nc32)c1 | inactive: -21.6% | –
63 | CN(Cc1ccc(F)cc1)S(=O)(=O)c1nnc(NC(=O)c2ccc(F)cc2)s1 | – | inconclusive [inhibitor, single point]
64 | COC(=O)[C@@H]1C[C@]2(OC(=O)c3ccccc3)C=CC(=O)C[C@@H]2N1C(=O)OCc1ccccc1 | – | active: 6.51 µM
65 | CCCc1ccc(-c2cc(NC(=O)CSc3n[nH]c(N)n3)n(-c3ccccc3)n2)cc1 | – | inconclusive [inhibitor, single point]
66 | Cc1cc(C(=O)COC(=O)c2ccc(O)cc2O)c(C)n1-c1ccccc1 | – | active: 20.6 µM
67 | O=C(Nc1ccc(F)c(Cl)c1)c1cc(C2CCCCN2C(=O)CCCc2ccccc2)on1 (centres undefined) | – | inconclusive [inhibitor, single point]
68 | CCc1nc2nc(C)cc(C)n2c1Nc1ccc(OC)cc1 | – | inconclusive [inhibitor, single point]
69 | Cc1ccc2c(c1)N(CC(=O)NCCCc1ccccc1)C(=O)c1cccnc1O2 | – | inconclusive [inhibitor, single point]
70 | Cc1ccc(Cl)cc1N1CCN(C(=O)c2cc(S(=O)(=O)N3CCCCCC3)cn2C)CC1 | – | inconclusive [inhibitor, single point]
71 | Cc1cc(Cl)ccc1Nc1ncnc2onc(C)c12 | – | inconclusive [inhibitor, single point]
72 | Cc1cc(=S)c2ccccc2[nH]1 | – | inconclusive [inhibitor, single point]
73 | O=c1cc(-c2ccc(O)c(O)c2)oc2cc(O)c(C3OC(CO)C(O)C(O)C3O)c(O)c12 (centres undefined) | inactive: 2.67% | –
74 | O=C(CSc1nc2c([nH]c3ccccc32)c(=O)n1-c1ccccc1F)Nc1ccccc1C(F)(F)F | – | active: 16.4 µM
